# Values joined by “and” are separate entries in the source; they are usually repeats but may differ in a detail not shown here. Equal values may be shown once. Whole data set: some 2,900 compounds, median “NF-kB SEAP reporter activity, fold change vs agonist alone” near 0.99, cut for the highest 2% near 2.6. This is one part of the list.
# Tests used:
# RAW-Dual [1] = assay: NF-kB SEAP reporter activity, fold change vs agonist alone; cytotoxicity flag (confluency mask): not cytotoxic; higher = enhanced NF-kB activity
# In short: (§1)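 RAW-Dual macrophages (50,000 cells/well in DMEM, 384-well plates) received 50 nL of library stock by pin tool, then a PRR agonist 1 h later, and were kept at 37 °C, 5% CO2. After 20 hours, supernatant was read for IRF by QuantiLuc luminescence and for NF-κB by QuantiBlue absorbance at 620 nm. Reporter activity is fold change over agonist-alone wells. Cytotoxic wells had IncuCyte confluency below 70% of agonist controls in both mask sets.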
# RAW-Dual [2] = assay: NF-kB SEAP reporter activity, fold change vs agonist alone; higher = enhanced NF-kB activity
# In short: as §1
# RAW-Dual [3] = assay: NF-kB SEAP reporter activity, fold change vs agonist alone; cytotoxicity flag (confluency mask): cytotoxic (confluency <70% of control); higher = enhanced NF-kB activity
# In short: as §1
# [4] = library stock concentration (final ~1000-fold dilution): 10 mM, cytotoxicity flag (confluency mask): not cytotoxic, agonist: Imiquimod (TLR7) […]
# [5] = agonist: ODN 1826 (TLR9) 0.5 ug/mL
# [6] = agonist: Pam2CSK4 (TLR2/6) 0.1 ug/mL
# [7] = agonist: Pam3CSK4 (TLR2/1) 0.1 ug/mL
# [8] = library stock concentration (final ~1000-fold dilution): 10 mM, cytotoxicity flag (confluency mask): not cytotoxic, agonist: MPLA (TLR4) […]
# [9] = library stock concentration (final ~1000-fold dilution): 10 mM, cytotoxicity flag (confluency mask): cytotoxic (confluency <70% of control), agonist: Imiquimod (TLR7) […]
# [10] = library stock concentration (final ~1000-fold dilution): 10 mM, cytotoxicity flag (confluency mask): cytotoxic (confluency <70% of control), agonist: MPLA (TLR4) […]
compound,measurement,setting,value
O=C(Nc1ccccc1C(=O)NC1CCCCNC1=O)c1cc2ccccc2s1 (stereo not drawn) (library stock concentration (final ~1000-fold dilution): 10 mM),NF-kB SEAP reporter activity,RAW-Dual [1]; agonist: LPS (TLR4) 0.1 ug/mL,2.62
COc1ccc2c(c1)c(CC(=O)O)c(C)n2C(=O)c1ccc(Cl)cc1,NF-kB SEAP reporter activity,RAW-Dual [2]; [4],1.2
COc1ccc2c(c1)c(CC(=O)O)c(C)n2C(=O)c1ccc(Cl)cc1 (library stock concentration (final ~1000-fold dilution): 10 mM),NF-kB SEAP reporter activity,RAW-Dual [1]; agonist: LPS (TLR4) 0.1 ug/mL,1.12 and 1.16
same,NF-kB SEAP reporter activity,RAW-Dual [1]; [5],1.03 and 1.01
same,NF-kB SEAP reporter activity,RAW-Dual [1]; [6],0.916 and 0.929
same,NF-kB SEAP reporter activity,RAW-Dual [1]; [7],0.933 and 1.08
Nc1nc2ccc(OC(F)(F)F)cc2s1,NF-kB SEAP reporter activity,RAW-Dual [2]; [4],0.815
same,NF-kB SEAP reporter activity,RAW-Dual [2]; [8],1.02
Nc1nc2ccc(OC(F)(F)F)cc2s1 (library stock concentration (final ~1000-fold dilution): 10 mM),NF-kB SEAP reporter activity,RAW-Dual [1]; agonist: LPS (TLR4) 0.1 ug/mL,0.806
same,NF-kB SEAP reporter activity,RAW-Dual [1]; [5],0.803
same,NF-kB SEAP reporter activity,RAW-Dual [1]; [6],0.803
same,NF-kB SEAP reporter activity,RAW-Dual [1]; [7],0.878
CNC(=O)c1cc(Oc2ccc(NC(=O)Nc3cc(C(C)(C)C)nn3-c3ccc4ncccc4c3)c(F)c2)ccn1,NF-kB SEAP reporter activity,RAW-Dual [2]; [4],0.665
same,NF-kB SEAP reporter activity,RAW-Dual [2]; [8],0.84
CNC(=O)c1cc(Oc2ccc(NC(=O)Nc3cc(C(C)(C)C)nn3-c3ccc4ncccc4c3)c(F)c2)ccn1 (library stock concentration (final ~1000-fold dilution): 10 mM),NF-kB SEAP reporter activity,RAW-Dual [1]; agonist: LPS (TLR4) 0.1 ug/mL,0.224
same,NF-kB SEAP reporter activity,RAW-Dual [1]; [5],0.923
same,NF-kB SEAP reporter activity,RAW-Dual [1]; [6],0.0923
same,NF-kB SEAP reporter activity,RAW-Dual [1]; [7],0.401
CC(C)=CCc1c(O)ccc(C(=O)/C=C/c2ccc(O)cc2)c1O (library stock concentration (final ~1000-fold dilution): 10 mM),NF-kB SEAP reporter activity,RAW-Dual [3]; agonist: LPS (TLR4) 0.1 ug/mL,0.34
same,NF-kB SEAP reporter activity,RAW-Dual [3]; [5],0.583
same,NF-kB SEAP reporter activity,RAW-Dual [3]; [6],0.249
same,NF-kB SEAP reporter activity,RAW-Dual [3]; [7],0.236
CC(C)=CCc1c(O)ccc(C(=O)/C=C/c2ccc(O)cc2)c1O,NF-kB SEAP reporter activity,RAW-Dual [2]; [9],0.43
same,NF-kB SEAP reporter activity,RAW-Dual [2]; [10],0.986
NC(CSCCB(O)O)C(=O)O (stereo not drawn) (library stock concentration (final ~1000-fold dilution): 10 mM),NF-kB SEAP reporter activity,RAW-Dual [1]; agonist: LPS (TLR4) 0.1 ug/mL,0.97
same,NF-kB SEAP reporter activity,RAW-Dual [1]; [5],0.912
same,NF-kB SEAP reporter activity,RAW-Dual [1]; [6],0.827
same,NF-kB SEAP reporter activity,RAW-Dual [1]; [7],1.06
NC(CSCCB(O)O)C(=O)O (stereo not drawn),NF-kB SEAP reporter activity,RAW-Dual [2]; [4],0.946
same,NF-kB SEAP reporter activity,RAW-Dual [2]; [8],0.962
CN1CC(=O)N2C(Cc3c([nH]c4ccccc34)C2c2ccc3c(c2)OCO3)C1=O (stereo not drawn),NF-kB SEAP reporter activity,RAW-Dual [2]; [4],0.955
same,NF-kB SEAP reporter activity,RAW-Dual [2]; [8],0.984
CN1CC(=O)N2C(Cc3c([nH]c4ccccc34)C2c2ccc3c(c2)OCO3)C1=O (stereo not drawn) (library stock concentration (final ~1000-fold dilution): 10 mM),NF-kB SEAP reporter activity,RAW-Dual [1]; agonist: LPS (TLR4) 0.1 ug/mL,1.17
same,NF-kB SEAP reporter activity,RAW-Dual [1]; [5],1.18
same,NF-kB SEAP reporter activity,RAW-Dual [1]; [6],1.13
same,NF-kB SEAP reporter activity,RAW-Dual [1]; [7],1.11
CS(=O)(=O)O.Cc1c(O)cccc1C(=O)NC(CSc1ccccc1)C(O)CN1CC2CCCCC2CC1C(=O)NC(C)(C)C (stereo not drawn) (library stock concentration (final ~1000-fold dilution): 10 mM),NF-kB SEAP reporter activity,RAW-Dual [1]; agonist: LPS (TLR4) 0.1 ug/mL,4.08
CN1C2CCCC1CC(NC(=O)c1nn(C)c3ccccc13)C2.Cl (stereo not drawn) (library stock concentration (final ~1000-fold dilution): 10 mM water),NF-kB SEAP reporter activity,RAW-Dual [1]; agonist: LPS (TLR4) 0.1 ug/mL,1.2
same,NF-kB SEAP reporter activity,RAW-Dual [1]; [5],1.06
same,NF-kB SEAP reporter activity,RAW-Dual [1]; [6],1.04
same,NF-kB SEAP reporter activity,RAW-Dual [1]; [7],1.11
CN1C2CCCC1CC(NC(=O)c1nn(C)c3ccccc13)C2.Cl (stereo not drawn),NF-kB SEAP reporter activity,"RAW-Dual [2]; library stock concentration (final ~1000-fold dilution): 10 mM water, cytotoxicity flag (confluency mask): not cytotoxic, agonist: Imiquimod (TLR7) […]",0.874
same,NF-kB SEAP reporter activity,"RAW-Dual [2]; library stock concentration (final ~1000-fold dilution): 10 mM water, cytotoxicity flag (confluency mask): not cytotoxic, agonist: MPLA (TLR4) […]",1
NC(=O)Nc1cc(-c2cccc(F)c2)sc1C(=O)NC1CCCNC1 (stereo not drawn) (library stock concentration (final ~1000-fold dilution): 10 mM),NF-kB SEAP reporter activity,RAW-Dual [1]; agonist: LPS (TLR4) 0.1 ug/mL,0.239
same,NF-kB SEAP reporter activity,RAW-Dual [1]; [5],0.255
same,NF-kB SEAP reporter activity,RAW-Dual [1]; [6],0.0825
same,NF-kB SEAP reporter activity,RAW-Dual [1]; [7],0.16
NC(=O)Nc1cc(-c2cccc(F)c2)sc1C(=O)NC1CCCNC1 (stereo not drawn),NF-kB SEAP reporter activity,RAW-Dual [2]; [4],0.256
same,NF-kB SEAP reporter activity,RAW-Dual [2]; [8],0.401
Cl.OC(CNCC(O)C1CCc2cc(F)ccc2O1)C1CCc2cc(F)ccc2O1 (stereo not drawn) (library stock concentration (final ~1000-fold dilution): 10 mM),NF-kB SEAP reporter activity,RAW-Dual [3]; agonist: LPS (TLR4) 0.1 ug/mL,0.949
same,NF-kB SEAP reporter activity,RAW-Dual [3]; [5],0.412
same,NF-kB SEAP reporter activity,RAW-Dual [3]; [6],0.203
same,NF-kB SEAP reporter activity,RAW-Dual [3]; [7],0.408
Cl.OC(CNCC(O)C1CCc2cc(F)ccc2O1)C1CCc2cc(F)ccc2O1 (stereo not drawn),NF-kB SEAP reporter activity,RAW-Dual [2]; [9],1.62
same,NF-kB SEAP reporter activity,RAW-Dual [2]; [10],1.12
Cc1c(NC(=O)OCC2COCCN2)cn2ncnc(Nc3ccc4c(cnn4Cc4cccc(F)c4)c3)c12 (stereo not drawn),NF-kB SEAP reporter activity,RAW-Dual [2]; [4],1.99
same,NF-kB SEAP reporter activity,RAW-Dual [2]; [8],1
Cc1c(NC(=O)OCC2COCCN2)cn2ncnc(Nc3ccc4c(cnn4Cc4cccc(F)c4)c3)c12 (stereo not drawn) (library stock concentration (final ~1000-fold dilution): 10 mM),NF-kB SEAP reporter activity,RAW-Dual [1]; agonist: LPS (TLR4) 0.1 ug/mL,1.49
same,NF-kB SEAP reporter activity,RAW-Dual [1]; [5],0.194
same,NF-kB SEAP reporter activity,RAW-Dual [1]; [6],1
same,NF-kB SEAP reporter activity,RAW-Dual [1]; [7],0.839
CC(C)NCC(O)COc1cccc2ccccc12.Cl (stereo not drawn) (library stock concentration (final ~1000-fold dilution): 10 mM),NF-kB SEAP reporter activity,RAW-Dual [1]; agonist: LPS (TLR4) 0.1 ug/mL,0.913
same,NF-kB SEAP reporter activity,RAW-Dual [1]; [5],0.94
same,NF-kB SEAP reporter activity,RAW-Dual [1]; [6],0.822
same,NF-kB SEAP reporter activity,RAW-Dual [1]; [7],1.08
CC(C)NCC(O)COc1cccc2ccccc12.Cl (stereo not drawn),NF-kB SEAP reporter activity,RAW-Dual [2]; [4],1.07
same,NF-kB SEAP reporter activity,RAW-Dual [2]; [8],1.04
O=C(CCc1ccc(O)cc1)c1c(O)cc(O)cc1OC1OC(CO)C(O)C(O)C1O (stereo not drawn) (library stock concentration (final ~1000-fold dilution): 10 mM),NF-kB SEAP reporter activity,RAW-Dual [1]; agonist: LPS (TLR4) 0.1 ug/mL,0.997
same,NF-kB SEAP reporter activity,RAW-Dual [1]; [5],0.987
same,NF-kB SEAP reporter activity,RAW-Dual [1]; [6],1.22
same,NF-kB SEAP reporter activity,RAW-Dual [1]; [7],1.21
O=C(CCc1ccc(O)cc1)c1c(O)cc(O)cc1OC1OC(CO)C(O)C(O)C1O (stereo not drawn),NF-kB SEAP reporter activity,RAW-Dual [2]; [4],0.927
same,NF-kB SEAP reporter activity,RAW-Dual [2]; [8],1.08

# — the supplement of paper PMC10037445
